Laboratory results reported in the supplement of paper PMC10126150.
Values marked as one replicate rest on one cluster of the flow cell; about a third of the high ones do not repeat.

System: ATP
Experiment: switch fluorescence ratio, 500 uM ATP over buffer (Cy3 cluster intensity, sum of 5 cycles each) (fold (ratio)); higher = stronger signal-on switching upon ATP binding; sequences stand for … in TCGTCGGCAGCGTCAGATGTGTATAAGAGACAGTTTTTTTTTTTTTTTTTTTTTTTTT…TC
Settings: aptamer strand: ATP DNA aptamer (quencher-CACCTGGGGGAGTATTGCGGAGGAAGG + anchor), 100 nM annealed; ATP concentration: 500 uM; one replicate
Summary of the method: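 Cy3-labelled switching-strand clusters on a modified Illumina MiSeq flow-cell were annealed to 100 nM quencher-labelled ATP aptamer and imaged first in selection buffer, then after 15 min with 500 uM ATP at 22 °C. NaOH stripping and re-annealing separated each of five buffer/ATP cycles, and clusters outside 100-1000 RFU were excluded. The fluorescence ratio sums target-cycle Cy3 intensity over buffer-cycle Cy3 intensity per cluster and averages it per switch-domain sequence.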
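Also: ATP exposure 15 min at 22 °C before imaging.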

Sequence	switch fluorescence ratio
GTGGGAATTG	0.965
CGTGCAGCGC	1.05
ACGTGTGGCC	1.04
TAAGCCAGC	1.01
ACAAAGGGGT	0.964
TCAATTGTGG	0.978
TGAGTATTTC	0.977
GTCCTATATA	0.994
CAACTGGTGC	1.58
CTACCTGCGC	2.1
GACGTATATC	1.94
GTAGTTACAT	0.99
GAGGCCAAAT	1.04
GTTGGGAAAG	1.02
CCGCCTTCTT	1.11
CTATCCAATA	1.21
TGATGTTCTT	1.03
CATCTCAGTC	1.02
CGGGCAGCCG	0.902
CAGAGGTAAT	1.18
ATTGGAGGGA	0.958
CGGGATAAGT	1.01
ACGATGGATG	1.01
TGTGGCTCTC	1.02
CCGTCCGTTC	2.6
TTAGTCGGCC	0.995

Sequence	switch fluorescence ratio
AGGTAACAGG	1.01
CAGTTCTCTT	0.962
AGGAGCTGAC	1.37
ACCGGGGCAG	1.05
TACTGCCATG	1.06
AAGAAGCAA	1.83
AGCTTGCAGA	0.968
AACAGGGACT	0.985
GAGATGTGAC	0.978
TAATCAGTC	0.962
TTCGAGAGGA	0.982
AAAAAGCGTG	0.986
ATTGTCAATC	1.05
GGGTCCTGG	1.03
TTTCATGTAA	0.982
GCTTAACTG	0.968
AGCTCGTTC	1.01
CCAATGAAGT	0.968
CATTGTGTGC	1
GGTTAGCTCG	0.983
CGTTATTTG	0.952
ATGTAAAGGC	0.995
GCCACGACCG	1.13
ATGAGTAGTT	0.948
TTTTAAGTCA	0.97
GATATGTACT	1.06

Sequence	switch fluorescence ratio
CTCGGGTTTA	0.969
TTACATATCG	1.05
GATCACTACT	1.07
AGTGCTTAGT	1.01
TGGGCAGTCG	1.1
GAACGTTCTG	0.999
CGCACCGAAG	1.18
TCGTACTCGG	1.01
CGGTTCGAAT	1.01
CCTCAGATAT	1.73
AAAGCTCTCC	2.44
CTGTGTTCCT	1.03
TCGGCTCCT	1.16
CCGCGTTATA	2.07
CCAGAGGTCC	1.11
TATTATATAC	1.08
TTAGATATTA	0.989
AGAGAAACCG	1.11
AAAACCCGC	1.07
ACTAAGGACA	1.06
AACTTAATTT	1.02
TATCTCTTCA	1.04
GTTCTCTAGC	0.961
GGGCCAGGAA	0.972
GGGATATTTA	1.03
TACTATAACC	1.09

Sequence	switch fluorescence ratio
GCGACACTAG	0.987
TACTCTTGT	0.987
ATCCTCGGCT	1.03
TGAGGCCCTA	1.03
TTCACAGATT	1.02
ACTCCATGGG	0.985
AGTCATGCCG	1.05
CCTGGACTAA	1.05
CATTCTACTT	1.05
CCGACATAGC	2.42
GGTTCCTCGA	0.983
AGTCGTGACA	0.996
TCATCTAATC	1.04
CTATGTTTTA	0.957
CCGAAGAAAG	2.58
TTGCATCTGG	0.974
TTTGTGTGA	1.08
CTGGTTCGCA	1.06
TTCTAGTTTT	0.979
TCGGAGCGTC	1.6
GGCTACGGTT	0.972
ACGGGCCGCG	0.992
CTCATTTAAC	1.04
TAGTTGCTGT	0.989
AGTTGAAGC	0.973
TTTGTCGTGA	0.99

Sequence	switch fluorescence ratio
ATACGAGTCC	1.14
ACTTCGCGCG	1.06
CGAAGCTGTG	1.02
CCCAGGCTCC	1.84
GGGCGAAAGA	1.04
GTATAGTGCT	0.958
GCAGTTTACC	1.04
ATACCAGATA	0.942
ACCAGAGGTG	1.23
CGGTCCTGCT	0.969
CGTCTTAAGG	0.996
GGGTGCCTTA	0.965
GGTTGCGGAA	1.03
ATTCTCTCGA	1.03
ATGCTATATA	1.04
GCAACTAGTC	1.19
CATGAAAGCG	1.02
GGTACGACCG	1.01
TCCATTGGAG	1.01
TACTTGGTTT	0.987
CAAGGCCTAG	0.98
GTATGAACGA	0.992
GATGTGGAGC	1.04
ATCGATCAGT	0.989
TAGTACAGGT	1.04
TGATTCCGCC	1.03

Sequence	switch fluorescence ratio
ACCCGGTGTC	1.61
GACACGCTTA	1.06
TAAAGACAGG	0.977
TGCCGGTCGA	0.968
AGCATCTTGA	0.975
TAGTTATTGG	1.02
TTATTATGTC	0.901
CTTTGGAGCC	1.03
GGTTTCGAGT	1.01
GCTCCTCTG	1.17
TTTCCTAAGA	1.06
CATTTGGACT	1.02
TGGTAGAGCT	0.982
CCGTACCATA	1.59
AAGTATTCGG	1.01
AACGACCGGG	1.05
CTAGAGTATA	1.01
CATGGTTGGA	0.944
CTAGAACAGA	0.974
TTTAGAATAG	0.978
GAAGTTGGG	1.01
AGTATTGGTC	0.949
ACAAACCCC	1.24
